Some of the results follow. At the low end of the ranking the order means little.
Biological target: GST-SBP-SLBP (stem-loop binding protein) (UniProt Q14493)
Experiment: targeted RNA Bind-n-Seq;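 further: DESeq read counts versus GST-SBP nonspecific binding control pulldown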
Conditions: RBNS binding buffer: 25 mM Tris pH 7.5, 150 mM KCl, 3 mM MgCl2, 0.1% Tween, 0.5 mg/mL BSA, 1 mM DTT; 27 nM protein, 750 pM RNA pool; temperature not stated; high values mean tight binding

| Sequence | binding signal (log2 fold change) |
| --- | --- |
| GGUCACGUCUCAAUCAACUCAUUUUCCAGGGAAAACCCUGGUUAUUUCAACAGCUCGCAGUCAAG | -0.0884 |
| GGUCACGUCUCAAUCAACUCUUCGUCAGGAGUUUACUCCUGCUUAUUCAACAGCUCGCAGUCAAG | 0.0746 |
| GGUCACGUCUCAAUCAACUCUUCCUCCAGGGAAACCCCUGGCUUUCUCAACAGCUCGCAGUCAAG | -0.0547 |
| GGUCACGUCUCAAUCAACUCAUUUCCAGGAGUUUCCUCCUGUUAUUUCAACAGCUCGCAGUCAAG | -0.146 |
| GGUCACGUCUCAAUCAACUCAAUUCCCAGGGAAAACCCUGGUUUUCUCAACAGCUCGCAGUCAAG | -0.179 |
| GGUCACGUCUCAAUCAACUCAGUCCCAGGAGUUUUCUCCUGUUUAUUCAACAGCUCGCAGUCAAG | 0.0385 |
| GGUCACGUCUCAAUCAACUCCCAAGAGGGGGGGAAAACCCCUUUACCCUCCAACUCAACAGCUCGCAGUCAAG | -0.116 |
| GGUCACGUCUCAAUCAACUCCCAAGAGGGGGGGAAAACCCCUUUGCCCUCGAUAUCAACAGCUCGCAGUCAAG | 0.0882 |
| GGUCACGUCUCAAUCAACUCAUCCCCAGGAGUUUACUCCUGCUAACUCAACAGCUCGCAGUCAAG | 0.154 |
| GGUCACGUCUCAAUCAACUCUACUUCCAGGGAAAGCCCUGGCAAAUUCAACAGCUCGCAGUCAAG | -0.00473 |
| GGUCACGUCUCAAUCAACUCUUUCCCCAGGGAAAACCCUGGUUAAUUCAACAGCUCGCAGUCAAG | -0.0188 |
| GGUCACGUCUCAAUCAACUCUUCCUCAGGAGUUUACUCCUGCAUUUUCAACAGCUCGCAGUCAAG | -0.00484 |
| GGUCACGUCUCAAUCAACUCAGUCCCCAGGGAAAUCCCUGGCUAAUUCAACAGCUCGCAGUCAAG | -0.0492 |
| GGUCACGUCUCAAUCAACUCUUUCCCCAGGGAAAGCCCUGGCAAUUUCAACAGCUCGCAGUCAAG | 0.128 |
| GGUCACGUCUCAAUCAACUCUUCGCCAGGAGUUUUCUCCUGUAAUUUCAACAGCUCGCAGUCAAG | 0.154 |
| GGUCACGUCUCAAUCAACUCUACUCCCAGGGAAAGCCCUGGUUAAUUCAACAGCUCGCAGUCAAG | -0.228 |
| GGUCACGUCUCAAUCAACUCUUUCCCAGGAGUUUCCUCCUGCAUUCUCAACAGCUCGCAGUCAAG | 0.248 |
| GGUCACGUCUCAAUCAACUCUUCCUCCAGGGAAAUCCCUGGCUAUCUCAACAGCUCGCAGUCAAG | -0.21 |
| GGUCACGUCUCAAUCAACUCAUCGCCAGGAGUUUCCUCCUGUAAACUCAACAGCUCGCAGUCAAG | 0.13 |
| GGUCACGUCUCAAUCAACUCAGUUCCCAGGGAAAUCCCUGGCUUAUUCAACAGCUCGCAGUCAAG | -0.102 |
| GGUCACGUCUCAAUCAACUCAUUUCCCAGGGAAACCCCUGGUUUUUUCAACAGCUCGCAGUCAAG | -0.0766 |
| GGUCACGUCUCAAUCAACUCUUCUUCAGGAGUUUCCUCCUGCUAACUCAACAGCUCGCAGUCAAG | 0.14 |
| GGUCACGUCUCAAUCAACUCUUUUUCAGGAGUUUUCUCCUGUUAAUUCAACAGCUCGCAGUCAAG | 0.0606 |
| GGUCACGUCUCAAUCAACUCUUUCCCCAGGGAAAUCCCUGGCAUACUCAACAGCUCGCAGUCAAG | 0.0536 |

| Sequence | binding signal (log2 fold change) |
| --- | --- |
| GGUCACGUCUCAAUCAACUCUUCUCCCAGGGAAAACCCUGGUUUAUUCAACAGCUCGCAGUCAAG | -0.146 |
| GGUCACGUCUCAAUCAACUCAUACGAGGGGGGGAAAACCCCUUUACCCUCUACAUCAACAGCUCGCAGUCAAG | -0.065 |
| GGUCACGUCUCAAUCAACUCUUCAGAGGGGGGGAAAACCCCUUUACCCUCACAUUCAACAGCUCGCAGUCAAG | 0.118 |
| GGUCACGUCUCAAUCAACUCUUCGGAGGGGGGGAAAACCCCUUUACCCUCAACAUCAACAGCUCGCAGUCAAG | -0.515 |
| GGUCACGUCUCAAUCAACUCAACAGAGGGGGGGAAAACCCCUUUACCCUCGAAUUCAACAGCUCGCAGUCAAG | -0.27 |
| GGUCACGUCUCAAUCAACUCUAUCCCAGGAGUUUCCUCCUGUAAUCUCAACAGCUCGCAGUCAAG | 0.0738 |
| GGUCACGUCUCAAUCAACUCUAUCCCAGGAGUUUCCUCCUGCAUAUUCAACAGCUCGCAGUCAAG | 0.157 |
| GGUCACGUCUCAAUCAACUCUACUUCCAGGGAAAGCCCUGGCAAUCUCAACAGCUCGCAGUCAAG | -0.0196 |
| GGUCACGUCUCAAUCAACUCUCUCGAGGGGGGGAAAACCCCUUUACCCUCAACUUCAACAGCUCGCAGUCAAG | 0.109 |
| GGUCACGUCUCAAUCAACUCAUUUUCAGGAGUUUUCUCCUGCAUACUCAACAGCUCGCAGUCAAG | 0.105 |
| GGUCACGUCUCAAUCAACUCAUUUCCAGGAGUUUGCUCCUGUAUAUUCAACAGCUCGCAGUCAAG | 0.0947 |
| GGUCACGUCUCAAUCAACUCUUUUCCAGGAGUUUCCUCCUGCUAUUUCAACAGCUCGCAGUCAAG | -0.202 |
| GGUCACGUCUCAAUCAACUCAACUUCCAGGGAAAACCCUGGUAAUCUCAACAGCUCGCAGUCAAG | -0.0477 |
| GGUCACGUCUCAAUCAACUCUAACGAGGGGGGGAAAACCCCUUUACCCUCAACUUCAACAGCUCGCAGUCAAG | 0.426 |
| GGUCACGUCUCAAUCAACUCAUCCCCCAGGGAAACCCCUGGCUUUUUCAACAGCUCGCAGUCAAG | -0.00181 |
| GGUCACGUCUCAAUCAACUCUUCCUCCAGGGAAAGCCCUGGCAAACUCAACAGCUCGCAGUCAAG | -0.165 |
| GGUCACGUCUCAAUCAACUCUAUUCCAGGAGUUUCCUCCUGCUAACUCAACAGCUCGCAGUCAAG | 0.0967 |
| GGUCACGUCUCAAUCAACUCUAUCUCAGGAGUUUCCUCCUGCAAUUUCAACAGCUCGCAGUCAAG | 0.0969 |
| GGUCACGUCUCAAUCAACUCCCACGAGGGGGGGAAAACCCCUUUACCCUCUACUUCAACAGCUCGCAGUCAAG | -0.417 |
| GGUCACGUCUCAAUCAACUCAUUUGCAGGAGUUUACUCCUGGUAUCUCAACAGCUCGCAGUCAAG | 0.00726 |
| GGUCACGUCUCAAUCAACUCAACUCCCAGGGAAACCCCUGGUUAUUUCAACAGCUCGCAGUCAAG | 0.0645 |
| GGUCACGUCUCAAUCAACUCCCUAGAGGGGGGGAAAACCCCUUUGCCCUCACAAUCAACAGCUCGCAGUCAAG | 0.17 |
| GGUCACGUCUCAAUCAACUCCAUAGAGGGGGGGAAAACCCCUUUACCCUCAUUAUCAACAGCUCGCAGUCAAG | -0.378 |

Reference: PMC5892938
